Test results from PubChem BioAssay AID1963576 (National Center for Advancing Translational Sciences (NCATS), 2024).
Out of some 46,000 compounds screened, about 60 (0.1%) were called active. About 3% were inconclusive and are not listed. The call rests on the fitted dose curve; in most records, active means well fitted inhibition curve with a large enough effect; inconclusive means small, poorly fitted or top-dose-only effect; inactive means no such curve, though single readings can be large or run the other way. Some of the results follow.

Experiment: Primary qHTS assay for Inhibitors of ovarian cancer metastasis using an organotypic tumor microenvironment (TME) model. Further: nearly all actives have a fitted effect of over 65% in size.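 On activity change, negative = inhibition: plate controls were DMSO wells for no effect and tomatine positive control wells for full effect.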
Conditions: SKOV3ip1-GFP adhesion/invasion on 3D omental model, fluorescence; series mostly up to 45.8 µM; activity change, negative = inhibition: at the top concentration
Method in brief: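 Adhesion/invasion was scored as fixed GFP-labeled SKOV3ip1 cell counts (488/509 nm), normalized to DMSO and tomatine controls. Cancer cells in serum-free medium, with four compound doses (0.36-46 umol/L), sat 2 hr at RT then 16 hr at 37 C on a 48 hr fibroblast/mesothelial/ECM culture.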

| Compound | outcome | activity change, negative = inhibition |
| --- | --- | --- |
| COc1ccccc1NC(=O)Cn1c(C)cc(C)c(C#N)c1=O | inactive | – |
| O=C(CCCCn1c(=O)c2ccccc2n(Cc2cccc(F)c2)c1=O)NCCc1ccccc1 | – | inactive: -3.38% |
| CC(C)(C)OC(=O)N1CCC(c2c(C(=O)N3CCN(c4ccccn4)CC3)cnn2-c2ccc(F)cc2F)CC1 | – | inactive: 46.5% |
| Cc1ccc(-c2cnc(C3CC3)o2)cc1S(=O)(=O)Nc1cccc(C)c1C | – | inactive: 2.46% |
| O=C(CSc1nccn1-c1ccc(F)cc1)Nc1nc2ccccc2s1 | – | inactive: -4.31% |
| Cc1cccc(Cn2c(-c3ccccc3)nc3ccccc32)c1 | – | inactive: -0.709% |
| O=C(CC1N=C2c3ccccc3N=C(SCc3ccc(F)cc3)N2C1=O)NCCc1ccccc1 (configuration not stated) | – | inactive: -2.49% |
| COc1ccc2[nH]c3c(c2c1)CCN(C(=O)CCC1CCCC1)C3c1ccc(F)cc1 (configuration not stated) | inactive | – |
| COc1ccc(CC(C)NS(=O)(=O)c2ccc3c(c2)CCN3S(C)(=O)=O)cc1OC (configuration not stated) | – | inactive: 17.3% |
| COC(=O)c1c(NC(=O)c2ccc(OC)cc2OC)sc2c1CCCCC2 | – | inactive: 6.07% |
| COc1ccc(Cl)cc1NCc1nnc2n1CCCCC2 | – | inactive: 39.2% |
| COc1ccc(NC(=O)c2oc3ccccc3c2NC(=O)c2cc(=O)c3cc(Cl)ccc3o2)cc1 | – | inactive: -5.39% |
| CCCNC(=O)Nc1ccc(Oc2ncnc3cc(OC)c(OC)cc23)cc1Cl | – | inactive: -22.1% |
| CC(C)(C)c1ccc(C(=O)NCC(=O)OCc2cc(=O)n3nc(C4CC4)sc3n2)cc1 | inactive | – |
| Cc1ccc(NC(=O)C2CCCN(c3ncnc4c3nc3n4CCCCC3)C2)c(Br)c1 (configuration not stated) | – | inactive: -9.71% |
| CCn1c(=O)c2cc(C(=O)NCc3cc(OC)ccc3OC)sc2c2ccccc21 | inactive | – |
| COc1ccc(NC(=O)C2CCCN(S(=O)(=O)c3c(C)[nH]c(=O)[nH]c3=O)C2)cc1OC (configuration not stated) | inactive | – |
| CCN1CCN(c2csc3ccc(Br)cc3c2=O)CC1 | – | inactive: 3.14% |
| Cc1cc(C)cc(-n2c(SCC(=O)Nc3ccccc3)nc3c(oc4ccccc43)c2=O)c1 | – | inactive: -19.7% |
| CCOc1ccc2nc(NC(=O)c3nc(SCc4ccccc4F)ncc3Cl)sc2c1 | – | inactive: 3.76% |
| CCC(Cc1ccccc1)NC(=O)Cn1nc(C)n2c(cc3occc32)c1=O (configuration not stated) | – | inactive: 9.84% |
| O=C(NCc1ccc(Cl)cc1)C1CCN(S(=O)(=O)c2cccc3nonc23)CC1 | inactive | – |
| CC(C)Cn1cc(NC(=O)N2CCN(c3ccc(F)cc3)CC2)c2ccccc2c1=O | inactive | – |
| COc1cc(OC)cc(-c2nc3nc(C)c(CCC(=O)Nc4cc(C)cc(C)c4)c(C)n3n2)c1 | – | inactive: -8.04% |
| CCCCn1c(=O)n(CC2CCC(C(=O)NCCCOC)CC2)c(=O)c2sccc21 (configuration not stated) | – | inactive: 13.8% |

| Compound | outcome | activity change, negative = inhibition |
| --- | --- | --- |
| COc1ccc2c(CNCc3cccs3)c(C(=O)O)n(Cc3ccc(F)cc3)c2c1 | inactive | – |
| Cc1ccc(-n2nc3c(=O)n(C(C)C(=O)NCc4ccc(OC(C)C)cc4)nc(C)c3c2C)cc1 (configuration not stated) | – | inactive: -9.69% |
| Cc1ccc2nc(COc3cccc(NC(=O)Nc4ccc(C)c(Cl)c4)c3)cc(=O)n2c1 | – | inactive: -4.57% |
| COCCNC(=O)c1ccc2c(c1)N(Cc1cc(C)ccc1C)C(=O)c1ccccc1S2=O (configuration not stated) | inactive | – |
| O=C(Cn1c(SCc2ccc(F)cc2)nc2cccnc21)Nc1ccccc1F | – | inactive: -1.19% |
| COc1cccc(-c2cc(C(=O)NCCc3ccc(OC)c(OC)c3)no2)c1 | – | inactive: -11.2% |
| Cc1ccc2c(CNC3CCCCC3)c(C(=O)O)n(Cc3ccc(F)cc3)c2c1 | inactive | – |
| Cc1cc(=O)[nH]c2nnc(SCc3ccc(Cl)cc3Cl)n12 | – | inactive: 0.204% |
| CCCS(=O)(=O)N1CC(=O)N(c2cccc(Cl)c2)C(C)(C(=O)NC2CCCCC2)C1 (configuration not stated) | inactive | – |
| CC(=O)c1cccc(NC(=O)c2sc(-n3nc(C)c(Cc4ccccc4)c3C)nc2C)c1 | – | inactive: -9.61% |
| O=C(Nc1ccc(F)c(Cl)c1)c1ccc2c(Cl)c3c(nc2c1)CCCC3 | – | inactive: 58.7% |
| CC(=O)OCC(=O)[C@@]1(O)[C@H](C)C[C@H]2[C@@H]3C=C(C)C4=Cc5c(cnn5-c5ccccc5)C[C@]4(C)[C@@H]3[C@@H](O)C[C@@]21C | – | inactive: -1.92% |
| CCOc1ccccc1CNC(=O)c1cc2c(=O)n(Cc3cccnc3)ccc2nc1C | – | inactive: -7.9% |
| COc1cccc2cc(-c3nc(-c4ccccc4F)no3)c(=O)oc12 | – | inactive: 3.28% |
| Cc1ccc(CNC(=O)CN2C(=O)COc3ccc(S(=O)(=O)N4CCC(C)CC4)cc32)cc1 | – | inactive: -5.13% |
| C[C@]1(c2nc3c(C(N)=O)cccc3[nH]2)CCCN1 | – | inactive: -16.7% |
| CCN1C(=O)c2ccccc2S(=O)(=O)c2ccc(C(=O)NCc3ccc(F)cc3)cc21 | inactive | – |
| Cc1ccc(NC(=O)Cc2coc3c(C)c(C)ccc23)c(C)c1 | – | inactive: -0.551% |
| Cc1ccc(-n2cc(C(=O)OCc3ccc(Cl)cc3)c3ccccc3c2=O)cc1 | – | inactive: 23.7% |
| COc1ccc(NC(=O)c2ccc3[nH]c(C)cc(=O)c3c2)cc1 | – | inactive: 2.99% |
| CCCCCCn1c(/C=C/c2ccccc2)nc2ccccc21 | – | inactive: -0.134% |
| Cc1ccc(/C=C/C(=O)Nc2ccc(Cl)cc2Cl)cc1 | – | inactive: -7.37% |
| CSc1cccc(NC(=O)c2ccc3c(c2)CCCN3S(C)(=O)=O)c1 | – | inactive: -2.85% |
| CCN(CC)c1ccc(-c2nc(-c3ccccn3)no2)cc1[N+](=O)[O-] | – | inactive: 0.486% |
| CN1c2ccccc2-c2nc(SCC(=O)Nc3ccccc3)ncc2S1(=O)=O | – | inactive: 1.31% |

| Compound | outcome | activity change, negative = inhibition |
| --- | --- | --- |
| CCc1nn(CCCC(=O)NCc2ccc(OC)c(OC)c2)c(=O)c2cc3occc3n12 | – | inactive: -7.08% |
| CCN(CCCNC(=O)c1ccc(Sc2ccc(Cl)cc2)c(NC(C)=O)c1)c1cccc(C)c1 | – | inactive: 1.42% |
| COC(=O)C1CCN(c2csc3ccc(C)cc3c2=O)CC1 | – | inactive: 7.39% |
| c1ccc(N2CCN(c3ncnc4c3nc3n4CCCCC3)CC2)cc1 | inactive | – |
| Cc1ccc(C)c(NC(=O)CN(Cc2ccccc2)S(=O)(=O)c2ccc3nc(C)sc3c2)c1 | – | inactive: 15.4% |
| O=C(CSc1oc(-c2ccco2)nc1S(=O)(=O)c1ccc(Br)cc1)c1ccc(Cl)cc1 | – | inactive: -18.8% |
| Cc1cc(Br)ccc1NC(=O)c1sc2ncn(Cc3ccccc3Cl)c(=O)c2c1C | – | inactive: -11.8% |
| Cc1ccc(-n2ncc3c(NCc4ccccc4)ncnc32)cc1C | – | inactive: 2.82% |
| COc1cc(C2Oc3nc(SC)nnc3-c3ccccc3N2C(C)=O)cc(Cl)c1OC (configuration not stated) | – | inactive: -8.58% |
| CC(NC(=O)C1CCN(C(=O)N2CCOc3ccccc32)CC1)c1ccccc1 (configuration not stated) | – | inactive: 5.88% |
| COc1cc(OC)c(NC(=O)CSc2nc3ccncc3[nH]2)cc1Cl | – | inactive: 5.86% |
| CC1CCN(S(=O)(=O)c2cccc(C(=O)N(C)C3(C)CCS(=O)(=O)C3)c2)CC1 (configuration not stated) | – | inactive: 4.77% |
| Cc1cccc(NC(=O)CCS(=O)(=O)c2cc(Br)cc3c2N(C(=O)C2CC2)CC3)c1C | – | inactive: 4% |
| CCCNC(=O)Cn1nc(C)c2c(C)n(-c3ccccc3)nc2c1=O | – | inactive: -2.42% |
| CC1=C(C(=O)Nc2cccnc2)C(c2ccc(F)cc2)n2nc(SCc3ccccc3)nc2N1 (configuration not stated) | inactive | – |
| CCCCNC(=O)CSc1nc2ccccc2nc1Cc1ccccc1 | inactive | – |
| Cc1ccc(C(=O)c2cn(CC(=O)Nc3ccc4c(c3)OCCO4)c3nc(C)ccc3c2=O)cc1 | – | inactive: -14.2% |
| CCOc1ccc(Nc2c(S(=O)(=O)c3ccccc3)cnc3ccc(CC)cc23)cc1 | – | inactive: -14.9% |
| COc1cccc(N2CCN(C(=O)Cn3ncc4c3-c3ccccc3OC4)CC2)c1 | – | inactive: 2.8% |
| Cc1ccc(N2CC(NC(=O)C3CCCC3)CC2=O)cc1 (configuration not stated) | inactive | – |
| CC(C)CCNC(=O)c1ccc(NC(=O)N2CCCCc3ccccc32)cc1 | – | inactive: 1.5% |
| O=C(CSc1nc2ccccc2n1Cc1ccccc1)NCc1ccccc1 | – | inactive: 0.637% |
| CC(C)CC(NC(=O)C1CCC(C)CC1)C(=O)OCC(=O)c1ccc(Cl)cc1 (configuration not stated) | – | inactive: -7.07% |
| CSc1oc(-c2ccc(F)cc2)nc1S(=O)(=O)c1ccc(Br)cc1 | – | inactive: -14.8% |
| COc1ccc(NC(=O)c2ccco2)cc1NC(=O)c1ccc(OC(C)C)cc1 | – | inactive: 6.49% |

| Compound | outcome | activity change, negative = inhibition |
| --- | --- | --- |
| Cc1cc(C)cc(OC(C)C(=O)Nc2nc3c(s2)CCCC3)c1 (configuration not stated) | – | inactive: -5.62% |
| COc1cn(CC(=O)Nc2cccc(C)c2)c(CN2CCCCC2)cc1=O | – | inactive: -0.823% |
| CCOc1ccc(Nc2ncnc3onc(-c4ccc(Cl)cc4)c23)cc1 | inactive | – |
| COc1ccc(CCNC(=O)Cn2nc(-c3ccc(Cl)cc3)ccc2=O)cc1OC | – | inactive: 1.25% |
| CC(=O)N1c2ccccc2CC1C(=O)N1CCN(c2ccccc2F)CC1 (configuration not stated) | inactive | – |
| CCOC(=O)C1=C(CNCc2ccc(Cl)cc2)NC(=O)NC1c1ccccc1 (configuration not stated) | inactive | – |
| COc1cc(NC(=O)Cn2cc(S(=O)(=O)N3CCC(C)CC3)c3ccccc3c2=O)cc(OC)c1OC | inactive | – |
| CCCC(C(=O)Nc1cc(C)c(Cl)cc1OC)N1Cc2ccccc2C1=O (configuration not stated) | – | inactive: -0.279% |
| COc1cccc(/C=C(\C#N)c2nc3ccccc3c(=O)[nH]2)c1OC | – | inactive: -2.15% |
| COc1ccc(Oc2ncnc3c2oc2ccccc23)cc1 | – | inactive: -8.81% |
| CCOC(=O)c1ccc(NC(=O)C2CCCN(c3cnccn3)C2)cc1 (configuration not stated) | inactive | – |
| Cc1nc2sccn2c(=O)c1S(=O)(=O)Nc1cccc(Cl)c1C | – | inactive: 15.3% |
| CC(=O)c1ccc(N2CCN(S(=O)(=O)c3ccc(-c4cnc(C5CC5)o4)cc3)CC2)cc1 | inactive | – |
| Cc1ccc(OCC(=O)Nc2ccc(C(=O)OCc3cc(=O)n4ccsc4n3)cc2)cc1C | – | inactive: -3.79% |
| Cc1ccc(NC(=O)N2CCC(CN3CCCCC3)CC2)c(Cl)c1 | – | inactive: 12.9% |
| CCOC(=O)c1cc(-c2ccc(OC)cc2)n(CCC(=O)NCCc2ccc(OCC)c(OCC)c2)c1C | – | inactive: -14.2% |
| CCn1cc(/C=C(\NC(=O)c2ccc(OC)c(OC)c2)C(=O)NCCCn2ccnc2)c2ccccc21 | – | inactive: 13.1% |
| CN(C)c1ccc(CNC(=O)C2CCN(C(=O)c3ccc(-n4ccc5ccccc54)s3)CC2)cc1 | inactive | – |
| Cc1ccccc1Nc1nnc(-c2ccc(C)c(S(=O)(=O)NCC3CCCO3)c2)c2ccccc12 (configuration not stated) | – | inactive: 2.69% |
| CCOC(=O)c1c(-c2ccc(OC)cc2)oc2ccc(OCc3ccc(F)cc3F)cc12 | – | inactive: -1.57% |
| CC(C)(C)OC(=O)N1CCC(c2c(C(=O)N3CCN(c4ncccn4)CC3)cnn2-c2ccc(F)cc2)CC1 | – | inactive: -19.2% |
| O=C(O)Cc1cccc(OCCCN(Cc2cccc(C(F)(F)F)c2Cl)CC(c2ccccc2)c2ccccc2)c1 | – | inactive: -3.59% |
